# Laboratory results: the supplement of paper PMC8728848
# Some of the results follow.
# Legend:
# Experiment in all cases: glycan array binding signal (z-score within array); higher = stronger binding
# Settings in all cases: glycan notation: IUPAC condensed, linker removed
# [1] = biological target: GlcNAc(a1-3)Gal(b1-4)GlcNAc
# In short: (§1)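 The Consortium for Functional Glycomics database supplied 3228 glycan arrays, of which those lacking an available protein sequence were dropped. The binding signal, a within-array Z-score, was averaged across arrays of the same protein sequence and across linkers. Negative scores can be read as non-binding.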
# [2] = biological target: GlcNAc(a1-4)Gal(b1-3)GlcNAc
# In short: as §1
# [3] = biological target: GlcNAc(a1-4)Gal(b1-4)GalNAc
# In short: as §1
# [4] = biological target: GlcNAc(a1-4)Gal(b1-4)GlcNAc
# In short: as §1
# [5] = biological target: GlcNAc(a1-4)Gal(b1-4)GlcNAc(b1-3)Gal(b1-4)Glc
# In short: as §1
# [6] = biological target: GlcNAc(a1-4)Gal(b1-4)GlcNAc(b1-3)Gal(b1-4)GlcNAc
# In short: as §1
# [7] = biological target: GlcNAc(a1-4)Gal(b1-4)GlcNAc(b1-3)Gal(b1-4)GlcNAc(b1-3)Gal(b1-4)GlcNAc
# In short: as §1
# [8] = biological target: GlcNAc(a1-4)Gal(b1-4)GlcNAc(b1-3)Gal(b1-4)[Fuc(a1-3)]GlcNAc(b1-3)Gal(b1-4)[Fuc(a1-3)]GlcNAc
# In short: as §1
# [9] = biological target: GlcNAc(a1-6)Gal(b1-4)GlcNAc
# In short: as §1
# [10] = biological target: GlcNAc(b1-2)Gal(b1-3)GalNAc
# In short: as §1
# [11] = biological target: GlcNAc(b1-2)Man(a1-3)[GlcNAc(b1-2)Man(a1-6)]Man(b1-4)GlcNAc(b1-4)GlcNAc
# In short: as §1
# [12] = biological target: GlcNAc(b1-2)Man(a1-3)[GlcNAc(b1-2)Man(a1-6)]Man(b1-4)GlcNAc(b1-4)[Fuc(a1-6)]GlcNAc
# In short: as §1
# [13] = biological target: GlcNAc(b1-2)Man(a1-3)[GlcNAc(b1-4)][GlcNAc(b1-2)Man(a1-6)]Man(b1-4)GlcNAc(b1-4)GlcNAc
# In short: as §1
# [14] = biological target: GlcNAc(b1-2)Man(a1-3)[GlcNAc(b1-4)][GlcNAc(b1-2)Man(a1-6)]Man(b1-4)GlcNAc(b1-4)[Fuc(a1-6)]GlcNAc
# In short: as §1
# [15] = biological target: GlcNAc(b1-2)[GlcNAc(b1-4)]Man(a1-3)[GlcNAc(b1-2)Man(a1-6)]Man(b1-4)GlcNAc(b1-4)GlcNAc
# In short: as §1
# [16] = biological target: GlcNAc(b1-2)[GlcNAc(b1-4)]Man(a1-3)[GlcNAc(b1-4)][GlcNAc(b1-2)Man(a1-6)]Man(b1-4)GlcNAc(b1-4)GlcNAc
# In short: as §1
# [17] = biological target: GlcNAc(b1-2)[GlcNAc(b1-4)]Man(a1-3)[GlcNAc(b1-4)][GlcNAc(b1-2)[GlcNAc(b1-6)]Man(a1-6)]Man(b1-4)GlcNAc(b1-4)GlcNAc
# In short: as §1
# [18] = biological target: GlcNAc(b1-2)[GlcNAc(b1-4)]Man(a1-3)[GlcNAc(b1-4)][GlcNAc(b1-2)[GlcNAc(b1-6)]Man(a1-6)]Man(b1-4)GlcNAc(b1-4)[Fuc(a1-6)]GlcNAc
# In short: as §1
# [19] = biological target: GlcNAc(b1-2)[GlcNAc(b1-6)]Man(a1-6)[GlcNAc(b1-2)Man(a1-3)]Man(b1-4)GlcNAc(b1-4)GlcNAc
# In short: as §1
# [20] = biological target: GlcNAc(b1-2)[GlcNAc(b1-6)]Man(a1-6)[GlcNAc(b1-2)Man(a1-3)]Man(b1-4)GlcNAc(b1-4)[Fuc(a1-6)]GlcNAc
# In short: as §1
# [21] = biological target: GlcNAc(b1-2)[GlcNAc(b1-6)]Man(a1-6)[GlcNAc(b1-4)][GlcNAc(b1-2)Man(a1-3)]Man(b1-4)GlcNAc(b1-4)GlcNAc
# In short: as §1
# [22] = biological target: GlcNAc(b1-3)Fuc
# In short: as §1
# [23] = biological target: GlcNAc(b1-3)Gal
# In short: as §1
# [24] = biological target: GlcNAc(b1-3)Gal(b1-3)GalNAc
# In short: as §1
# [25] = biological target: GlcNAc(b1-3)Gal(b1-4)Glc
# In short: as §1
# [26] = biological target: GlcNAc(b1-3)Gal(b1-4)GlcNAc
# In short: as §1
# [27] = biological target: GlcNAc(b1-3)Gal(b1-4)GlcNAc(b1-2)Man(a1-3)[GlcNAc(b1-3)Gal(b1-4)GlcNAc(b1-2)Man(a1-6)]Man(b1-4)GlcNAc(b1-4)GlcNAc
# In short: as §1
# [28] = biological target: GlcNAc(b1-3)Gal(b1-4)GlcNAc(b1-2)Man(a1-3)[GlcNAc(b1-3)Gal(b1-4)GlcNAc(b1-2)Man(a1-6)]Man(b1-4)GlcNAc(b1-4)[Fuc(a1-6)]GlcNAc
# In short: as §1
# [29] = biological target: GlcNAc(b1-3)Gal(b1-4)GlcNAc(b1-2)[GlcNAc(b1-3)Gal(b1-4)GlcNAc(b1-6)]Man(a1-6)[GlcNAc(b1-3)Gal(b1-4)GlcNAc(b1-2)Man(a1-3)]Man(b1-4)GlcNAc(b1-4)GlcNAc
# In short: as §1
# [30] = biological target: GlcNAc(b1-3)Gal(b1-4)GlcNAc(b1-3)Gal(b1-4)GlcNAc
# In short: as §1
# [31] = biological target: GlcNAc(b1-3)Gal(b1-4)GlcNAc(b1-3)Gal(b1-4)GlcNAc(b1-2)Man(a1-3)[GlcNAc(b1-3)Gal(b1-4)GlcNAc(b1-3)Gal(b1-4)GlcNAc(b1-2)Man(a1-6)]Man(b1-4)GlcNAc(b1-4)GlcNAc
# In short: as §1
# [32] = biological target: GlcNAc(b1-3)Gal(b1-4)GlcNAc(b1-3)Gal(b1-4)GlcNAc(b1-2)Man(a1-3)[GlcNAc(b1-3)Gal(b1-4)GlcNAc(b1-3)Gal(b1-4)GlcNAc(b1-2)Man(a1-6)]Man(b1-4)GlcNAc(b1-4)[Fuc(a1-6)]GlcNAc
# In short: as §1
# [33] = biological target: GlcNAc(b1-3)Gal(b1-4)GlcNAc(b1-3)Gal(b1-4)GlcNAc(b1-2)[GlcNAc(b1-3)Gal(b1-4)GlcNAc(b1-3)Gal(b1-4)GlcNAc(b1-6)]Man(a1-6)[GlcNAc(b1-3)Gal(b1-4)GlcNAc(b1-3)Gal(b1-4)GlcNAc(b1-2)Man(a1-3)]Man(b1-4)GlcNAc(b1-4)[Fuc(a1-6)]GlcNAc
# In short: as §1
# [34] = biological target: GlcNAc(b1-3)Gal(b1-4)GlcNAc(b1-3)Gal(b1-4)GlcNAc(b1-3)Gal(b1-4)GlcNAc(b1-2)Man(a1-3)[GlcNAc(b1-3)Gal(b1-4)GlcNAc(b1-3)Gal(b1-4)GlcNAc(b1-3)Gal(b1-4)GlcNAc(b1-2)Man(a1-6)]Man(b1-4)GlcNAc(b1-4)GlcNAc
# In short: as §1
# [35] = biological target: GlcNAc(b1-3)Gal(b1-4)GlcNAc(b1-3)Gal(b1-4)GlcNAc(b1-3)Gal(b1-4)GlcNAc(b1-2)Man(a1-3)[GlcNAc(b1-3)Gal(b1-4)GlcNAc(b1-3)Gal(b1-4)GlcNAc(b1-3)Gal(b1-4)GlcNAc(b1-2)Man(a1-6)]Man(b1-4)GlcNAc(b1-4)[Fuc(a1-6)]GlcNAc
# In short: as §1
# [36] = biological target: GlcNAc(b1-3)Gal(b1-4)GlcNAc(b1-3)Gal(b1-4)GlcNAc(b1-3)Gal(b1-4)GlcNAc(b1-2)[GlcNAc(b1-3)Gal(b1-4)GlcNAc(b1-3)Gal(b1-4)GlcNAc(b1-3)Gal(b1-4)GlcNAc(b1-6)]Man(a1-6)[GlcNAc(b1-3)Gal(b1-4)GlcNAc(b1-3)Gal(b1-4)GlcNAc(b1-3)Gal(b1-4)GlcNAc(b1-2)Man(a1-3)]Man(b1-4)GlcNAc(b1-4)[Fuc(a1-6)]GlcNAc
# In short: as §1
# [37] = biological target: GlcNAc(b1-3)Gal(b1-4)GlcNAc(b1-3)Gal(b1-4)GlcNAc(b1-3)Gal(b1-4)GlcNAc(b1-3)Gal(b1-4)GlcNAc(b1-2)Man(a1-3)[GlcNAc(b1-3)Gal(b1-4)GlcNAc(b1-3)Gal(b1-4)GlcNAc(b1-3)Gal(b1-4)GlcNAc(b1-3)Gal(b1-4)GlcNAc(b1-2)Man(a1-6)]Man(b1-4)GlcNAc(b1-4)GlcNAc
# In short: as §1
# [38] = biological target: GlcNAc(b1-3)Gal(b1-4)GlcNAc(b1-3)Gal(b1-4)GlcNAc(b1-3)Gal(b1-4)GlcNAc(b1-3)Gal(b1-4)GlcNAc(b1-2)Man(a1-3)[GlcNAc(b1-3)Gal(b1-4)GlcNAc(b1-3)Gal(b1-4)GlcNAc(b1-3)Gal(b1-4)GlcNAc(b1-3)Gal(b1-4)GlcNAc(b1-2)Man(a1-6)]Man(b1-4)GlcNAc(b1-4)[Fuc(a1-6)]GlcNAc
# In short: as §1
binder,measurement,setting,value
"Als1 (Candida albicans), P46590 (protein) KTITGVFDSFNSLTWSNAANYAFKGPGYPTWNAVLGWSLDGTSANPGDTFTLNMPCVFKYTTSQTSVDLTADGVKYATCQFYSGEEFTTFSTLTCTVNDALKSSIKAFGTVTLPIAFNVGGTGSSTDLEDSKCFTAGTNTVTFNDGDKDISIDVEFEKSTVDPSGYLYASRVMPSLNKVTTLFVAPQCENGYTSGTMGFSSSNGDVAIDCSNIHIGITKGLNDWNYPVSSESFSYTKTCTSNGIQIKYQNVPAGYRPFIDAYISATDVNQYTLAYTNDYTCAGSRLQSKPFTLRWTGYKNSDAGSNGIVIVATTRTVTDSTTAVTTLPFNPSVDKTKTIEILQPIPTTTITTSYVGVTTSYLTKTAPIGETATVIVDVPYHTTTTVTSEWTGTITTTTTRTNPTDSIDTVVVQVP",glycan array binding signal (z-score),[1],-0.244
same,glycan array binding signal (z-score),[2],0.256
same,glycan array binding signal (z-score),[3],0.307
same,glycan array binding signal (z-score),[4],-0.228
same,glycan array binding signal (z-score),[5],-0.414
same,glycan array binding signal (z-score),[6],-0.287
same,glycan array binding signal (z-score),[7],-0.362
same,glycan array binding signal (z-score),[8],0.471
same,glycan array binding signal (z-score),[9],-0.491
same,glycan array binding signal (z-score),[10],-0.623
same,glycan array binding signal (z-score),[11],-0.365
same,glycan array binding signal (z-score),[12],0.767
same,glycan array binding signal (z-score),[13],-0.554
same,glycan array binding signal (z-score),[14],-0.648
same,glycan array binding signal (z-score),[15],-0.625
same,glycan array binding signal (z-score),[16],0.441
same,glycan array binding signal (z-score),[17],-0.508
same,glycan array binding signal (z-score),[18],-0.407
same,glycan array binding signal (z-score),[19],0.276
same,glycan array binding signal (z-score),[20],0.632
same,glycan array binding signal (z-score),[21],-0.481
same,glycan array binding signal (z-score),[22],-0.431
same,glycan array binding signal (z-score),[23],4.47
same,glycan array binding signal (z-score),[24],-0.321
same,glycan array binding signal (z-score),[25],-0.381
same,glycan array binding signal (z-score),[26],-0.393
same,glycan array binding signal (z-score),[27],-0.591
same,glycan array binding signal (z-score),[28],-0.201
same,glycan array binding signal (z-score),[29],4.37
same,glycan array binding signal (z-score),[30],-0.343
same,glycan array binding signal (z-score),[31],2.67
same,glycan array binding signal (z-score),[32],-0.328
same,glycan array binding signal (z-score),[33],0.505
same,glycan array binding signal (z-score),[34],0.134
same,glycan array binding signal (z-score),[35],-0.545
same,glycan array binding signal (z-score),[36],0.48
same,glycan array binding signal (z-score),[37],-0.474
same,glycan array binding signal (z-score),[38],-0.624
